Data taken from publication PMC4336329 (PLoS ONE, 2015).
Among all 310,000 compounds or so, about 14,000 (4.5%) showed an effect of 50% or more. Effects have a minus sign here. This is one part of the list.

Each compound was assayed against human ether-à-go-go-related gene (hERG) potassium channel (human, UniProt Q12809) (assay: primary screen, population patch clamp on CHO cells stably expressing hERG).
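Note: peak tail current of the secondary pulse compared with the same well before compound.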

Sequence of human ether-à-go-go-related gene (hERG) potassium channel (Q12809 whole entry, looked up): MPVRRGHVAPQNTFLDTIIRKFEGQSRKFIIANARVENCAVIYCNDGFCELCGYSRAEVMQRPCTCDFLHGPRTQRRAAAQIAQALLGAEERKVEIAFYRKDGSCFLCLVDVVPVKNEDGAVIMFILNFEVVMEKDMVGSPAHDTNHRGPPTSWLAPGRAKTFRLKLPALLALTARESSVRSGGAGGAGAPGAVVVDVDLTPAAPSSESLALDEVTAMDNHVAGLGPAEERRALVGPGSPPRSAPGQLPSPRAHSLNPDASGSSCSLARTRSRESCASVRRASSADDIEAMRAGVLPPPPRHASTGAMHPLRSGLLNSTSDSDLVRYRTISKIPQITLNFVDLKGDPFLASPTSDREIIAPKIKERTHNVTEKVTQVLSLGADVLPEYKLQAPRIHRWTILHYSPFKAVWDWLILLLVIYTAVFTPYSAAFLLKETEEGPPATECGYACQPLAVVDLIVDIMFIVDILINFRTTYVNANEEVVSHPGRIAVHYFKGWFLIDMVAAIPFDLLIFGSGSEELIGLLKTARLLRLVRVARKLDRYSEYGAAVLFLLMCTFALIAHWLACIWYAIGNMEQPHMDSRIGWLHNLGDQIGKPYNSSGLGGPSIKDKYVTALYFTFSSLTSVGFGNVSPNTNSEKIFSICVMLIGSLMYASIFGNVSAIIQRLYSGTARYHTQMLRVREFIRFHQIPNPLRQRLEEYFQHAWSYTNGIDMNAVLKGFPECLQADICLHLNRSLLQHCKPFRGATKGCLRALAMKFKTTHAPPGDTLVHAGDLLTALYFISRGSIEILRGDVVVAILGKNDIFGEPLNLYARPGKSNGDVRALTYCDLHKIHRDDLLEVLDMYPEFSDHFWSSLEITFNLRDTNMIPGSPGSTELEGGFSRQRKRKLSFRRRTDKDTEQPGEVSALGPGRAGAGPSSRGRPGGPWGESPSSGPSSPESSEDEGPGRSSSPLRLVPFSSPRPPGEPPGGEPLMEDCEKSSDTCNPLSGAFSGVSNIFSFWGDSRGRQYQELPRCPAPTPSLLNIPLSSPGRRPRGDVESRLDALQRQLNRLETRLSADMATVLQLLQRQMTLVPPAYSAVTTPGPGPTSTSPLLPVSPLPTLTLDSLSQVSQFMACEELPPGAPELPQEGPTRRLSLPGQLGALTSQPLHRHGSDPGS

Going from Cn1c(-c2ccc(F)cc2)cnc1NCc1ccc(C#N)cc1 to O=C(Nc1ccc2nc(C3CC3)n(Cc3ccc(F)cc3)c(=O)c2c1)c1ccco1, the “hERG current change (%, negative = inhibition) at 10uM” value rises from -73.7% to -11.7%.

Going from N#Cc1c(NC(=O)CSc2nnnn2C2CCCCC2)sc2c1CCCC2 to COc1ccccc1-n1c(SCC(N)=O)nc2sc3c(c2c1=O)CCC3, the “hERG current change (%, negative = inhibition) at 10uM” value rises from 1.39% to 9.36%.

First: Cc1ccc(C(=O)Nc2ccccc2[N+](=O)[O-])cc1S(=O)(=O)N1CCOCC1
Second: O=C(Nc1ccon1)c1ccc(S(=O)(=O)N2CCCCCC2)cc1
The “hERG current change (%, negative = inhibition) at 10uM” value of the first is lower: -25.2% for the first, 9.89% for the second.

Going from CCOc1ccccc1-c1nc(CN2CCN(C(=O)c3ccco3)CC2)c(C)o1 to Cn1c(=O)c2c(nc(CN3CCN(C(=O)c4ccco4)CC3)n2Cc2ccc(F)cc2)n(C)c1=O, the “hERG current change (%, negative = inhibition) at 10uM” value falls from -2.01% to -44.8%.

First: COc1ccc(NC(=O)c2[nH]ncc2[N+](=O)[O-])cc1
Second: COc1ccc(C(=O)Nc2ccc(C3CC3(Cl)Cl)cc2)cc1 (centres unmarked)
The “hERG current change (%, negative = inhibition) at 10uM” value of the first is lower: 10.6% for the first, 19.6% for the second.

First: Cc1cc(NC(=O)CCCN2C(=O)/C(=C/c3ccccc3Cl)SC2=S)no1
Second: CC(=O)Nc1ccc(C(=O)Nc2cc(C)on2)cc1
The “hERG current change (%, negative = inhibition) at 10uM” value of the first is lower: -0.189% for the first, 28.7% for the second.

Going from CCOC(=O)N1CCC(NC(=O)c2cc3c(-c4ccc(OC)c(OC)c4)nn(C)c3s2)CC1 to COc1ccc(C(=O)Nc2nnc(S(=O)(=O)N3CCCCCC3)s2)cc1OC, the “hERG current change (%, negative = inhibition) at 10uM” value falls from 2.98% to -0.855%.

Compared with Oc1ccc2ccc3cccc[n+]3c2c1.[I-], Brc1ccc2ncnc(NCc3ccccc3)c2c1 is lower in “hERG current change (%, negative = inhibition) at 10uM” value: 23.7% for the first, -10.3% for the second.

Going from COc1cccc(CN(C)CC(=O)Nc2ccccc2C(=O)Nc2ccccc2)c1 to CN(C(=O)CNC(=O)OCc1ccccc1)c1ccc(Br)cc1C(=O)c1ccccc1Cl, the “hERG current change (%, negative = inhibition) at 10uM” value falls from 18.1% to -0.016%.

Compared with COc1ccc(CNC(=O)CCN2C(=O)c3ccncc3C2=O)cc1OC, COc1ccc(CCNC(=O)c2ccc([N+](=O)[O-])cc2Cl)cc1OC is lower in “hERG current change (%, negative = inhibition) at 10uM” value: 13% for the first, -4.77% for the second.

Going from Clc1ccc(-n2nnnc2SCc2c(-c3ccccc3)nc3sccn23)cc1 to c1ccc(-c2nc(-n3nc4ccccc4n3)nc3ccccc23)cc1, the “hERG current change (%, negative = inhibition) at 10uM” value rises from -1.43% to 3.21%.

Compared with Cc1ccc(-n2nc3c(=O)n(CC(=O)NCc4cccs4)nc(C)c3c2C)cc1, Cc1oc(-c2ccc(Cl)cc2)nc1CS(=O)CC(=O)NCc1cccs1 (centres unmarked) is lower in “hERG current change (%, negative = inhibition) at 10uM” value: -20.1% for the first, -45% for the second.

First: O=C(CNS(=O)(=O)c1ccc(Br)s1)NC1CCCc2ccccc21 (centres unmarked)
Second: O=C(CN1CCN(S(=O)(=O)c2ccccc2)CC1)NC1CC1
The “hERG current change (%, negative = inhibition) at 10uM” value of the first is lower: -2.79% for the first, 15.3% for the second.

Going from CCOc1ccccc1/C=C(\C#N)C1=CCCC1 to Cc1c(/C=C(\CC(=O)O)c2nc3ccccc3s2)cc(C#N)n1C, the “hERG current change (%, negative = inhibition) at 10uM” value falls from 16.1% to 10.8%.

Compared with CCOc1ccc(NC(=O)NNC(=O)c2ccc(Cl)cc2Cl)cc1, CC(CC(=O)NNC(=O)c1cccc(Cl)c1)c1ccccc1 (centres unmarked) is lower in “hERG current change (%, negative = inhibition) at 10uM” value: 24.1% for the first, 4.59% for the second.

First: COc1cc(SC)ccc1C(=O)Nc1cccc(C)n1
Second: Br.COC(=O)CN1C(C)=Nc2ccc(Br)cc2C1c1ccccc1 (centres unmarked)
The “hERG current change (%, negative = inhibition) at 10uM” value of the first is higher: -14% for the first, -49.1% for the second.

CCn1c(SCCN2CCOCC2)nc2c1c(=O)n(C)c(=O)n2C and CC(=O)NNc1[nH]c2c(c(=O)c1[N+](=O)[O-])c(=O)n(C)c(=O)n2C are the same in “hERG current change (%, negative = inhibition) at 10uM” value: 15.8% for the first, 15.8% for the second.

Going from CS(=O)(=O)Nc1cc2c3c(c1)CCC(=O)N3CCC2 to O=C(NCc1cccnc1)C(=O)Nc1cc2c3c(c1)CC(=O)N3CCC2, the “hERG current change (%, negative = inhibition) at 10uM” value falls from 12% to 8.2%.

First: CC(=O)c1c(C)n([O-])c2cc(F)c(F)cc2[n+]1=O
Second: O=C(COC(=O)c1ccc(F)cc1F)Nc1ccc2[nH]c(=O)[nH]c2c1
The “hERG current change (%, negative = inhibition) at 10uM” value of the first is higher: 29.6% for the first, 10.3% for the second.

Going from CCN(CC)S(=O)(=O)c1cc(NC(=O)NCCCl)ccc1C to CCN(CC)S(=O)(=O)c1cc(C(=O)OC)ccc1Cl, the “hERG current change (%, negative = inhibition) at 10uM” value rises from -11.7% to 4.43%.

First: Cc1onc(-c2ccccc2Cl)c1C(=O)OCC(=O)c1ccccc1
Second: C=CCNc1nc(C(=O)OCC(=O)c2ccc(Cl)cc2)cs1
The “hERG current change (%, negative = inhibition) at 10uM” value of the first is lower: -3.82% for the first, 6% for the second.

Compared with Cc1ccc(C)c(OCC(O)CN2CCN(CCN3C(=O)c4cccc5cccc(c45)C3=O)CC2)c1.Cl (centres unmarked), Cc1ccc(S(=O)(=O)N2CCN(Cc3nc4ccccc4[nH]3)CC2)cc1C is higher in “hERG current change (%, negative = inhibition) at 10uM” value: -67.3% for the first, -45.1% for the second.

Compared with CCn1c(NC(=O)c2cccs2)nc2ccccc21, C=CCSc1nc2ccccc2n2cnnc12 is lower in “hERG current change (%, negative = inhibition) at 10uM” value: 3.21% for the first, -18.5% for the second.

Compared with COc1ccc2[nH]c(C)c(CCN(Cc3cccs3)C(=S)Nc3ccc(F)cc3)c2c1, COc1ccc2c(c1)C1=C(CC2)C(c2ccc(C)cc2)NC(=S)N1 (centres unmarked) is lower in “hERG current change (%, negative = inhibition) at 10uM” value: 2.08% for the first, -1.59% for the second.

Compared with Cc1ccc(C)c(N(CC(=O)NC(C)(C)C)C(=O)CCC(=O)Nc2nccs2)c1, COc1ccc(C)cc1NC(=O)COCC(=O)O is lower in “hERG current change (%, negative = inhibition) at 10uM” value: 2.56% for the first, -8.48% for the second.

First: O=c1[nH]c2cc3c(cc2cc1C(c1nnnn1CC1CCCO1)N1CCCCCC1)OCCO3 (centres unmarked)
Second: Cc1cc(=O)oc2cc3c(cc12)OCCO3
The “hERG current change (%, negative = inhibition) at 10uM” value of the first is lower: -0.134% for the first, 18.6% for the second.

Going from Cc1sc2nc(C3CC3)nc(SCC(=O)N3CC(=O)Nc4ccccc43)c2c1C to COc1ccc(CNC(=O)C2CCN(c3nn4c(=O)cc(C)nc4s3)CC2)cc1, the “hERG current change (%, negative = inhibition) at 10uM” value falls from 9.57% to -4.51%.

Compared with CC(C)Oc1ccc(S(=O)(=O)N2CCCCC2)cc1NC(=O)CN1CCCC1c1cccs1 (centres unmarked), COc1ccc(S(=O)(=O)N2CCCC(N(C)CCc3ccccc3)C2)cc1OC (centres unmarked) is lower in “hERG current change (%, negative = inhibition) at 10uM” value: 15.4% for the first, -66.5% for the second.

Compared with CCC(=O)c1ccc(OCC(=O)OCC(=O)N2CCCc3ccccc32)cc1, O=C(COC(=O)CN1C(=O)c2ccccc2C1=O)NC1CCCC1 is higher in “hERG current change (%, negative = inhibition) at 10uM” value: 12.5% for the first, 16% for the second.

Compared with CN(C)/C=C/C(=O)c1ccc(Br)s1, CCN1C(=O)N[C@@H](c2cccs2)C(C(C)=O)=C1C is lower in “hERG current change (%, negative = inhibition) at 10uM” value: 14.5% for the first, 3.96% for the second.

Going from COC(=O)CSc1nc(C)cc(C)n1 to CC(O)c1nc(C(C)O)n(CC(=O)c2ccccc2)n1 (centres unmarked), the “hERG current change (%, negative = inhibition) at 10uM” value rises from 1.7% to 19.2%.

First: CCNc1nc(NCC)n2c(SCC(=O)N3CC4(C)CC3CC(C)(C)C4)nnc2n1 (centres unmarked)
Second: C=CCCC(=O)NC1CC(C)(C)Cc2c1cnn2-c1cccc(F)c1 (centres unmarked)
The “hERG current change (%, negative = inhibition) at 10uM” value of the first is higher: 3.01% for the first, -68.4% for the second.

Compared with COC(=O)c1ccc2c(=O)n(CCCCCC(=O)O)c(=O)[nH]c2c1, CCOCCn1[nH]c2ccccc2c1=O is lower in “hERG current change (%, negative = inhibition) at 10uM” value: 6.49% for the first, 6.03% for the second.

First: COCCNS(=O)(=O)c1ccc2c(c1)C(=NO)c1cc(S(=O)(=O)NCCOC)ccc1-2
Second: COc1ccc(C(=O)N/C(=C/c2cccs2)C(=O)NCCCn2ccnc2)cc1OC
The “hERG current change (%, negative = inhibition) at 10uM” value of the first is higher: 0.547% for the first, -7.14% for the second.

Going from COc1ccccc1N1CCN(C2CCCCC2NS(=O)(=O)c2ccc(Cl)cc2)CC1 (centres unmarked) to N/C(Cc1ccc(Cl)cc1)=N\OC(=O)C1CCCCC1, the “hERG current change (%, negative = inhibition) at 10uM” value rises from -31.5% to 0.379%.

Compared with O=C(N/N=C/c1cccnc1)C(=O)N1CCCCCC1, Cn1c(=O)cc(C(=O)N/N=C/c2ccc(F)cc2)[nH]c1=O is lower in “hERG current change (%, negative = inhibition) at 10uM” value: 19.8% for the first, 11.1% for the second.

First: CC1CN(C(=S)NC(=O)c2cccc([N+](=O)[O-])c2)CC(C)O1 (centres unmarked)
Second: CC(=O)Nc1ccc(NC(=O)CSc2ccc([N+](=O)[O-])cn2)cc1
The “hERG current change (%, negative = inhibition) at 10uM” value of the first is higher: 19.9% for the first, 11.3% for the second.

Compared with CCC(COC(=O)Nc1cccc(C)c1C)NC(=O)OCC(C)C (centres unmarked), Cc1ccc(C(CC(N)=O)c2ccco2)cc1 (centres unmarked) is higher in “hERG current change (%, negative = inhibition) at 10uM” value: -21.3% for the first, 3.51% for the second.

First: Cc1ccc2nsnc2c1S(=O)(=O)N1CCCC1
Second: CCCS(=O)(=O)N1CCN(C(=O)c2cccs2)CC1
The “hERG current change (%, negative = inhibition) at 10uM” value of the first is lower: -5.75% for the first, 1.32% for the second.

First: CCN1C(=O)[C@H]2[C@@H](c3ccc(-c4ccc(OC)cc4)cc3)N3CCC[C@@]3(C(=O)OC)[C@H]2C1=O.O=C(O)C(F)(F)F
Second: COc1cccc(-c2cc(C(F)(F)F)n3ncc(S(=O)(=O)c4ccccc4)c3n2)c1
The “hERG current change (%, negative = inhibition) at 10uM” value of the first is lower: -1.81% for the first, 3.2% for the second.

First: CCN1CCCC1CN=Cc1c(O)n(-c2ccccc2)c(=O)c2ccccc12 (centres unmarked)
Second: Cc1[nH]n(-c2ccccc2)c(=O)c1C=Nc1ccc2[nH]c(=O)[nH]c2c1
The “hERG current change (%, negative = inhibition) at 10uM” value of the first is lower: -41.1% for the first, 10.5% for the second.

Compared with Cc1ccc(NC(=O)CN2C(=O)C(=O)N(C3CCCC3)C2=O)c(Cl)c1, NC(=O)CN1C(=O)NC2(CCCc3sccc32)C1=O (centres unmarked) is higher in “hERG current change (%, negative = inhibition) at 10uM” value: 5.52% for the first, 23.5% for the second.

Going from CC1CCN(C(=S)Nc2ccc(SC(F)F)cc2)CC1 to CCCCN(CCCNC(=O)c1ccc2nc(N3CCOCC3)sc2c1)Cc1ccccc1, the “hERG current change (%, negative = inhibition) at 10uM” value falls from -33% to -62%.

First: O=C(Nc1cccc(C(=O)O)c1)/C(=C\c1ccco1)NC(=O)c1ccccc1
Second: Cc1cc(C)cc(N(CC(=O)N2CCn3c2nc2ccccc23)S(=O)(=O)c2c(C)noc2C)c1
The “hERG current change (%, negative = inhibition) at 10uM” value of the first is higher: 22.1% for the first, 5.91% for the second.

O=C(COC(=O)C12CC3CC(CC(C3)C1)C2)Nc1ncc(Cl)cc1Cl was tested, and the “hERG current change (%, negative = inhibition) at 10uM” value was 14.9%.
